# The supplement of paper PMC4166925
# ± gives the standard deviation of the averaged measurements. In all, about 33,000 sequences were measured (“E-score (dimensionless, -0.5 to 0.5)”: median about -0.046, highest 2% from about 0.36 on). The list shows a part of the results.
# Test system: T1, SpTbr T-box DNA-binding domain (GST fusion)
# T1 sequence: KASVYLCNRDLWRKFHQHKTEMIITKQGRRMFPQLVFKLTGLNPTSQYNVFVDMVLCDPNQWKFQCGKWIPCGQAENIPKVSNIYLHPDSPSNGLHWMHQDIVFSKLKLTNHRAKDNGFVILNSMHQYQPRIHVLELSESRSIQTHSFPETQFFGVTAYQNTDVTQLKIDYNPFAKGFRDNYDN
# Test: PBM E-score of 8-mer (E-score (dimensionless, -0.5 to 0.5)); Tbr is Tbrain of the sea star Patiria miniata (Pm) or the sea urchin Strongylocentrotus purpuratus (Sp); higher = stronger binding preference; most listed sequences are background and not binding sites
# Conditions: the construct has about 5 more residues each side
# Procedure, shortened: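 Universal Agilent oligonucleotide arrays, made double-stranded by primer extension, were incubated with 200 nM GST-fused Tbr T-box DNA-binding domain in PBS (pH 7.5). The protein was expressed in BL21 E. coli at 20 °C and purified by glutathione affinity chromatography. After scanning and quantification, the Universal PBM Analysis Suite assigned an enrichment E-score to each ungapped 8-mer, averaged over duplicate arrays.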
row,Sequence,PBM E-score of 8-mer
1,GTAACCGA,-0.0382 ± 0.012
2,ATGAAGTG,0.281 ± 0.019
3,CCACAGCA,-0.0444 ± 0.0096
4,ACCGCAAT,-0.153 ± 0.061
5,CATCTTGC,-0.0155 ± 0.0057
6,AACACGCG,0.215 ± 0.018
7,AGCGTAAA,-0.0535 ± 0.045
8,ATGCTAAA,-0.104 ± 0.086
9,CAAAAATC,-0.0709 ± 0.038
10,GGTGCGTA,0.271 ± 0.077
11,AAAATTTG,-0.151 ± 0.019
12,GGAGCACA,-0.242 ± 0.082
13,AGCGCTCC,-0.217 ± 0.042
14,ATGGTGTA,0.127 ± 0.015
15,GCGGATCA,0.101 ± 0.047
16,TCTCACCA,0.372 ± 0.011
17,CATATGCC,-0.0737 ± 0.014
18,ATTTGCCA,0.067 ± 0.077
19,AGATAACT,0.0647 ± 0.053
20,AAGGGCCC,-0.261 ± 0.055
21,ATCACGCG,0.357 ± 0.012
22,AAAAGGTG,0.41 ± 0.0094

row,Sequence,PBM E-score of 8-mer
1,ATACTAGG,-0.153 ± 0.011
2,CACAAGCA,0.0133 ± 0.043
3,GGGCAACA,0.0214 ± 0.047
4,GATGATAA,-0.0271 ± 0.067
5,ATTCAAGG,-0.262 ± 0.017
6,AACTGAGA,0.0904 ± 0.049
7,CCCAATCG,-0.0416 ± 0.088
8,ACCAGCGT,0.0263 ± 0.051
9,AGCGTACA,-0.0903 ± 0.018
10,ATCATGGG,-0.411 ± 0.03
11,CCCCCGAG,-0.22 ± 0.0048
12,AGGCCCGG,-0.341 ± 0.018
13,AGAAGTTA,-0.0503 ± 0.027
14,CTCAAATA,-0.326 ± 0.024
15,GGTAAGAC,-0.224 ± 0.014
16,ACAAGGCC,-0.0617 ± 0.1
17,AGCTGGAT,0.0494 ± 0.039
18,CTTATACA,-0.104 ± 0.022
19,CTGATTTA,-0.0945 ± 0.065
20,ACCAATCC,0.144 ± 0.12
21,AAACTGGT,-0.0358 ± 0.091
22,CCTTGAAC,-0.0925 ± 0.0075

row,Sequence,PBM E-score of 8-mer
1,GACACTGA,0.093 ± 0.019
2,GAGTGTAC,-0.0659 ± 0.019
3,GTAGCACA,0.176 ± 0.068
4,AGAGACAT,-0.131 ± 0.031
5,AGTGACGA,0.329 ± 0.029
6,AGAGTTTA,-0.0197 ± 0.012
7,CACGTCCG,0.228 ± 0.0099
8,GGGGTTAA,-0.112 ± 0.0089
9,CGGACGGA,-0.227 ± 0.06
10,AACCGGAT,-0.215 ± 0.0027
11,ATGTTCCG,-0.184 ± 0.06
12,GATCATCC,-0.0523 ± 0.075
13,ACAATTAG,0.164 ± 0.074
14,CCCGCACC,0.311 ± 0.036
15,CTCGCGCC,0.412 ± 0.031
16,AGCGACTA,0.0344 ± 0.016
17,CAAGGCTA,-0.057 ± 0.0029
18,ACATCCTA,-0.151 ± 0.01
19,ACTCTTTA,0.0329 ± 0.022
20,AATGCGTA,-0.041 ± 0.044
21,GTGCGTGA,0.316 ± 0.057
22,CATGCAAC,0.155 ± 0.0056

row,Sequence,PBM E-score of 8-mer
1,AAAAGACC,-0.231 ± 0.024
2,CCAGCGAC,0.0269 ± 0.0024
3,CTAATAAC,0.014 ± 0.033
4,AGTATAGG,-0.333 ± 0.028
5,CTTGCATC,-0.151 ± 0.039
6,ATGCCGCC,-0.131 ± 0.024
7,CTTGCGAA,0.343 ± 0.019
8,ACTGCGTC,-0.161 ± 0.039
9,ATCGTCGG,0.0554 ± 0.004
10,ACTCGTTC,-0.0151 ± 0.017
11,ACGGAAAT,-0.226 ± 0.042
12,GAACGCAA,-0.0577 ± 0.0076
13,AGGTTAGG,-0.111 ± 0.091
14,AACAAAAA,-0.0702 ± 0.0031
15,ACCCAGGT,0.0937 ± 0.015
16,TAGCACCA,0.351 ± 0.0071
17,GCGAGTCA,0.203 ± 0.048
18,CGCAACTC,0.188 ± 0.039
19,GTCGAATA,-0.1325 ± 0.00049
20,CATAATGG,-0.0736 ± 0.0021
21,AGACGGAG,-0.0855 ± 0.018
22,ATACGCTA,-0.0905 ± 0.1

row,Sequence,PBM E-score of 8-mer
1,GATATGAA,0.131 ± 0.012
2,CACAGCGA,-0.00739 ± 0.047
3,CCGTTACC,0.0662 ± 0.018
4,ATCTTAGA,-0.172 ± 0.054
5,ATTATGTA,-0.137 ± 0.016
6,CACTAATG,0.0999 ± 0.028
7,ACCAGTCT,-0.181 ± 0.035
8,GTGACGCA,0.23 ± 0.024
9,AAGTATAC,0.0351 ± 0.056
10,ACGTCTGG,-0.159 ± 0.07
11,ACTCCCCC,-0.366 ± 0.059
12,ACTTGAAC,-0.149 ± 0.042
13,CGTCTCTC,-0.043 ± 0.068
14,ACCGGTTG,-0.0626 ± 0.069
15,ACTCTTCA,0.0691 ± 0.005
16,AACTCTTG,-0.0545 ± 0.035
17,AGTCTGGG,-0.278 ± 0.029
18,AACACGGC,0.118 ± 0.0051
19,AGCAATGC,-0.203 ± 0.084
20,AGATGGGA,-0.0351 ± 0.082
21,AGTCGATA,0.136 ± 0.052
22,AGACAGAT,-0.111 ± 0.05
